Data: the supplement of paper PMC10724272
MIC of invasive clinical C. tropicalis isolates, CLSI broth microdilution (fluconazole 0.12-256 mg/L, up to 1,024 for the azole-resistant cluster and its neighbour group; other ranges not stated); higher = less susceptible. Call: susceptible or wild type [S] / resistant or non-wild type [R] by CLSI breakpoints or cut-offs; intermediate and dose-dependent carry no call. '<=' and '>=' at the end values are inferred; the source marks only some of them. Isolates are numbered anew.

What follows are test systems tested with CC[C@H](C)C[C@H](C)CCCCCCCCC(=O)N[C@H]1C[C@@H](O)[C@@H](NCCN)NC(=O)[C@@H]2[C@@H](O)CCN2C(=O)[C@H]([C@H](O)CCN)NC(=O)[C@H]([C@H](O)[C@@H](O)c2ccc(O)cc2)NC(=O)[C@@H]2C[C@@H](O)CN2C(=O)[C@H]([C@@H](C)O)NC1=O [caspofungin] (assay: CLSI broth microdilution.).

Test System	MIC
Candida tropicalis isolate 347 (ERG11 copies: 2, Erg11p: no key change)	0.12 mg/L [S]
Candida tropicalis isolate 258 (ERG11 copies: 2, Erg11p: no key change)	0.06 mg/L [S]
Candida tropicalis isolate 344 (ERG11 copies: 2, Erg11p: no key change)	0.06 mg/L [S]
Candida tropicalis isolate 319 (ERG11 copies: 2, Erg11p: no key change)	0.03 mg/L [S]
Candida tropicalis isolate 422 (ERG11 copies: 2, Erg11p: no key change)	0.03 mg/L [S]
Candida tropicalis isolate 57 (ERG11 copies: 2, Erg11p: no key change)	0.12 mg/L [S]
Candida tropicalis isolate 222 (ERG11 copies: 5, Erg11p: Y132F, S154F, P397S (heterozygous))	0.06 mg/L [S]
Candida tropicalis isolate 370 (ERG11 copies: 2, Erg11p: no key change)	0.03 mg/L [S]
Candida tropicalis isolate 283 (ERG11 copies: 2, Erg11p: no key change)	0.03 mg/L [S]
Candida tropicalis isolate 43 (ERG11 copies: 10, Erg11p: Y132F, S154F (homozygous))	0.03 mg/L [S]
Candida tropicalis isolate 351 (ERG11 copies: 2, Erg11p: no key change)	0.06 mg/L [S]

These test systems were tested with C[C@@H](c1ncncc1F)[C@](O)(Cn1cncn1)c1ccc(F)cc1F [voriconazole] (assay: CLSI broth microdilution.).

Test System	MIC
Candida tropicalis isolate 69 (ERG11 copies: 2, Erg11p: no key change)	0.06 mg/L [S]
Candida tropicalis isolate 168 (ERG11 copies: 2, Erg11p: no key change)	0.06 mg/L [S]
Candida tropicalis isolate 388 (ERG11 copies: 2, Erg11p: no key change)	0.12 mg/L [S]
Candida tropicalis isolate 67 (ERG11 copies: 2, Erg11p: no key change)	0.03 mg/L [S]
Candida tropicalis isolate 265 (ERG11 copies: 13, Erg11p: Y132F, S154F (homozygous))	≥ 8 mg/L [R]
Candida tropicalis isolate 377 (ERG11 copies: 8, Erg11p: Y132F, S154F (heterozygous))	> 8 mg/L [R]
Candida tropicalis isolate 330 (ERG11 copies: 7, Erg11p: Y132F, S154F (heterozygous))	≥ 8 mg/L [R]
Candida tropicalis isolate 175 (ERG11 copies: 2, Erg11p: Y257H (homozygous))	0.5 µg/mL
Candida tropicalis isolate 312 (ERG11 copies: 2, Erg11p: Y132F, S154F (homozygous))	2 mg/L [R]
Candida tropicalis isolate 281 (ERG11 copies: 2, Erg11p: no key change)	0.12 mg/L [S]
Candida tropicalis isolate 274 (ERG11 copies: 2, Erg11p: no key change)	0.25 µg/mL
Candida tropicalis isolate 347 (ERG11 copies: 2, Erg11p: no key change)	0.12 mg/L [S]
Candida tropicalis isolate 258 (ERG11 copies: 2, Erg11p: no key change)	0.25 µg/mL
Candida tropicalis isolate 344 (ERG11 copies: 2, Erg11p: no key change)	0.12 mg/L [S]
Candida tropicalis isolate 319 (ERG11 copies: 2, Erg11p: no key change)	0.06 mg/L [S]
Candida tropicalis isolate 422 (ERG11 copies: 2, Erg11p: no key change)	0.12 mg/L [S]
Candida tropicalis isolate 57 (ERG11 copies: 2, Erg11p: no key change)	0.12 mg/L [S]
Candida tropicalis isolate 222 (ERG11 copies: 5, Erg11p: Y132F, S154F, P397S (heterozygous))	≥ 8 mg/L [R]
Candida tropicalis isolate 370 (ERG11 copies: 2, Erg11p: no key change)	0.06 mg/L [S]
Candida tropicalis isolate 283 (ERG11 copies: 2, Erg11p: no key change)	0.12 mg/L [S]
Candida tropicalis isolate 43 (ERG11 copies: 10, Erg11p: Y132F, S154F (homozygous))	0.25 µg/mL
Candida tropicalis isolate 351 (ERG11 copies: 2, Erg11p: no key change)	0.12 mg/L [S]

The test systems below were run with C[C@@H]1[C@H](O)[C@@H](C)/C=C/C=C/C=C/C=C/C=C/C=C/C=C/[C@H](O[C@@H]2O[C@H](C)[C@@H](O)[C@H](N)[C@@H]2O)C[C@@H]2O[C@](O)(C[C@@H](O)C[C@@H](O)[C@H](O)CC[C@@H](O)C[C@@H](O)CC(=O)O[C@H]1C)C[C@H](O)[C@H]2C(=O)O [amphotericin B] (assay: CLSI broth microdilution.).

Test System	MIC
Candida tropicalis isolate 69 (ERG11 copies: 2, Erg11p: no key change)	0.25 mg/L [S]
Candida tropicalis isolate 168 (ERG11 copies: 2, Erg11p: no key change)	1 mg/L [S]
Candida tropicalis isolate 388 (ERG11 copies: 2, Erg11p: no key change)	0.5 mg/L [S]
Candida tropicalis isolate 67 (ERG11 copies: 2, Erg11p: no key change)	1 mg/L [S]
Candida tropicalis isolate 265 (ERG11 copies: 13, Erg11p: Y132F, S154F (homozygous))	1 mg/L [S]
Candida tropicalis isolate 377 (ERG11 copies: 8, Erg11p: Y132F, S154F (heterozygous))	1 mg/L [S]
Candida tropicalis isolate 330 (ERG11 copies: 7, Erg11p: Y132F, S154F (heterozygous))	1 mg/L [S]
Candida tropicalis isolate 175 (ERG11 copies: 2, Erg11p: Y257H (homozygous))	0.5 mg/L [S]
Candida tropicalis isolate 312 (ERG11 copies: 2, Erg11p: Y132F, S154F (homozygous))	1 mg/L [S]
Candida tropicalis isolate 281 (ERG11 copies: 2, Erg11p: no key change)	1 mg/L [S]
Candida tropicalis isolate 274 (ERG11 copies: 2, Erg11p: no key change)	1 mg/L [S]
Candida tropicalis isolate 347 (ERG11 copies: 2, Erg11p: no key change)	1 mg/L [S]
Candida tropicalis isolate 258 (ERG11 copies: 2, Erg11p: no key change)	1 mg/L [S]
Candida tropicalis isolate 344 (ERG11 copies: 2, Erg11p: no key change)	0.5 mg/L [S]
Candida tropicalis isolate 319 (ERG11 copies: 2, Erg11p: no key change)	1 mg/L [S]
Candida tropicalis isolate 422 (ERG11 copies: 2, Erg11p: no key change)	1 mg/L [S]
Candida tropicalis isolate 57 (ERG11 copies: 2, Erg11p: no key change)	1 mg/L [S]
Candida tropicalis isolate 222 (ERG11 copies: 5, Erg11p: Y132F, S154F, P397S (heterozygous))	1 mg/L [S]
Candida tropicalis isolate 370 (ERG11 copies: 2, Erg11p: no key change)	0.5 mg/L [S]
Candida tropicalis isolate 283 (ERG11 copies: 2, Erg11p: no key change)	1 mg/L [S]
Candida tropicalis isolate 43 (ERG11 copies: 10, Erg11p: Y132F, S154F (homozygous))	0.25 mg/L [S]
Candida tropicalis isolate 351 (ERG11 copies: 2, Erg11p: no key change)	1 mg/L [S]

The test systems below were run with Nc1[nH]c(=O)ncc1F [flucytosine] (assay: CLSI broth microdilution.).

Test System	MIC
Candida tropicalis isolate 69 (ERG11 copies: 2, Erg11p: no key change)	≤ 0.06 mg/L [S]
Candida tropicalis isolate 168 (ERG11 copies: 2, Erg11p: no key change)	0.12 mg/L [S]
Candida tropicalis isolate 388 (ERG11 copies: 2, Erg11p: no key change)	≤ 0.06 mg/L [S]
Candida tropicalis isolate 67 (ERG11 copies: 2, Erg11p: no key change)	≤ 0.06 mg/L [S]
Candida tropicalis isolate 265 (ERG11 copies: 13, Erg11p: Y132F, S154F (homozygous))	≤ 0.06 mg/L [S]
Candida tropicalis isolate 377 (ERG11 copies: 8, Erg11p: Y132F, S154F (heterozygous))	≤ 0.06 mg/L [S]
Candida tropicalis isolate 330 (ERG11 copies: 7, Erg11p: Y132F, S154F (heterozygous))	≤ 0.06 mg/L [S]
Candida tropicalis isolate 175 (ERG11 copies: 2, Erg11p: Y257H (homozygous))	≤ 0.06 mg/L [S]
Candida tropicalis isolate 312 (ERG11 copies: 2, Erg11p: Y132F, S154F (homozygous))	≤ 0.06 mg/L [S]
Candida tropicalis isolate 281 (ERG11 copies: 2, Erg11p: no key change)	≤ 0.06 mg/L [S]
Candida tropicalis isolate 274 (ERG11 copies: 2, Erg11p: no key change)	≤ 0.06 mg/L [S]
Candida tropicalis isolate 347 (ERG11 copies: 2, Erg11p: no key change)	≤ 0.06 mg/L [S]
Candida tropicalis isolate 258 (ERG11 copies: 2, Erg11p: no key change)	≤ 0.06 mg/L [S]
Candida tropicalis isolate 344 (ERG11 copies: 2, Erg11p: no key change)	≤ 0.06 mg/L [S]
Candida tropicalis isolate 319 (ERG11 copies: 2, Erg11p: no key change)	≤ 0.06 mg/L [S]
Candida tropicalis isolate 422 (ERG11 copies: 2, Erg11p: no key change)	≤ 0.06 mg/L [S]
Candida tropicalis isolate 57 (ERG11 copies: 2, Erg11p: no key change)	≤ 0.06 mg/L [S]
Candida tropicalis isolate 222 (ERG11 copies: 5, Erg11p: Y132F, S154F, P397S (heterozygous))	≤ 0.06 mg/L [S]
Candida tropicalis isolate 370 (ERG11 copies: 2, Erg11p: no key change)	≤ 0.06 mg/L [S]
Candida tropicalis isolate 283 (ERG11 copies: 2, Erg11p: no key change)	≤ 0.06 mg/L [S]
Candida tropicalis isolate 43 (ERG11 copies: 10, Erg11p: Y132F, S154F (homozygous))	≤ 0.06 mg/L [S]
Candida tropicalis isolate 351 (ERG11 copies: 2, Erg11p: no key change)	≤ 0.06 mg/L [S]

What follows are test systems tested with OC(Cn1cncn1)(Cn1cncn1)c1ccc(F)cc1F [fluconazole] (assay: CLSI broth microdilution.).

Test System	MIC
Candida tropicalis isolate 69 (ERG11 copies: 2, Erg11p: no key change)	1 mg/L [S]
Candida tropicalis isolate 168 (ERG11 copies: 2, Erg11p: no key change)	1 mg/L [S]
Candida tropicalis isolate 388 (ERG11 copies: 2, Erg11p: no key change)	2 mg/L [S]
Candida tropicalis isolate 67 (ERG11 copies: 2, Erg11p: no key change)	1 mg/L [S]
Candida tropicalis isolate 265 (ERG11 copies: 13, Erg11p: Y132F, S154F (homozygous))	512 mg/L [R]
Candida tropicalis isolate 377 (ERG11 copies: 8, Erg11p: Y132F, S154F (heterozygous))	512 mg/L [R]
Candida tropicalis isolate 330 (ERG11 copies: 7, Erg11p: Y132F, S154F (heterozygous))	512 mg/L [R]
Candida tropicalis isolate 175 (ERG11 copies: 2, Erg11p: Y257H (homozygous))	8 mg/L [R]
Candida tropicalis isolate 312 (ERG11 copies: 2, Erg11p: Y132F, S154F (homozygous))	128 mg/L [R]
Candida tropicalis isolate 281 (ERG11 copies: 2, Erg11p: no key change)	1 mg/L [S]
Candida tropicalis isolate 274 (ERG11 copies: 2, Erg11p: no key change)	2 mg/L [S]
Candida tropicalis isolate 347 (ERG11 copies: 2, Erg11p: no key change)	2 mg/L [S]
Candida tropicalis isolate 258 (ERG11 copies: 2, Erg11p: no key change)	2 mg/L [S]
Candida tropicalis isolate 344 (ERG11 copies: 2, Erg11p: no key change)	2 mg/L [S]
Candida tropicalis isolate 319 (ERG11 copies: 2, Erg11p: no key change)	1 mg/L [S]
Candida tropicalis isolate 422 (ERG11 copies: 2, Erg11p: no key change)	2 mg/L [S]
Candida tropicalis isolate 57 (ERG11 copies: 2, Erg11p: no key change)	1 mg/L [S]
Candida tropicalis isolate 222 (ERG11 copies: 5, Erg11p: Y132F, S154F, P397S (heterozygous))	256 mg/L [R]
Candida tropicalis isolate 370 (ERG11 copies: 2, Erg11p: no key change)	1 mg/L [S]
Candida tropicalis isolate 283 (ERG11 copies: 2, Erg11p: no key change)	2 mg/L [S]
Candida tropicalis isolate 43 (ERG11 copies: 10, Erg11p: Y132F, S154F (homozygous))	4 µg/mL
Candida tropicalis isolate 351 (ERG11 copies: 2, Erg11p: no key change)	1 mg/L [S]
